# Measurements as given in the supplement of paper PMC8728848.
# This is one part of the list.
# How the values were obtained:
# Assay in all cases: glycan array binding signal (z-score within array); higher = stronger binding
# Settings in all cases: glycan notation: IUPAC condensed, linker removed
# [1] = molecular target: GlcNAc(b1-2)[GlcNAc(b1-4)]Man(a1-3)[GlcNAc(b1-4)][GlcNAc(b1-2)[GlcNAc(b1-6)]Man(a1-6)]Man(b1-4)GlcNAc(b1-4)GlcNAc
# Procedure, shortened: (§1)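 Glycan array data were curated from 3228 arrays in the Consortium for Functional Glycomics database and kept only where the protein sequence was available. Glycan names were converted to IUPAC-condensed notation, and columns mapping to the same glycan were averaged. The binding signal is a within-array Z-score, averaged across arrays of the same protein sequence at different concentrations or buffers and across linkers. Negative Z-scores can be read as non-binding.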
# [2] = molecular target: GlcNAc(b1-2)[GlcNAc(b1-4)]Man(a1-3)[GlcNAc(b1-4)][GlcNAc(b1-2)[GlcNAc(b1-6)]Man(a1-6)]Man(b1-4)GlcNAc(b1-4)[Fuc(a1-6)]GlcNAc
# Procedure, shortened: as §1
# [3] = molecular target: GlcNAc(b1-2)[GlcNAc(b1-6)]Man(a1-6)[GlcNAc(b1-2)Man(a1-3)]Man(b1-4)GlcNAc(b1-4)GlcNAc
# Procedure, shortened: as §1
# [4] = molecular target: GlcNAc(b1-2)[GlcNAc(b1-6)]Man(a1-6)[GlcNAc(b1-2)Man(a1-3)]Man(b1-4)GlcNAc(b1-4)[Fuc(a1-6)]GlcNAc
# Procedure, shortened: as §1
# [5] = molecular target: GlcNAc(b1-2)[GlcNAc(b1-6)]Man(a1-6)[GlcNAc(b1-4)][GlcNAc(b1-2)Man(a1-3)]Man(b1-4)GlcNAc(b1-4)GlcNAc
# Procedure, shortened: as §1
# GlcNAc(b1-3)Fuc = molecular target: GlcNAc(b1-3)Fuc
# Procedure, shortened: as §1
# GlcNAc(b1-3)Gal = molecular target: GlcNAc(b1-3)Gal
# Procedure, shortened: as §1
# [6] = molecular target: GlcNAc(b1-3)Gal(b1-3)GalNAc
# Procedure, shortened: as §1
# GlcNAc(b1-3)Gal(b1-4)Glc = molecular target: GlcNAc(b1-3)Gal(b1-4)Glc
# Procedure, shortened: as §1
# [7] = molecular target: GlcNAc(b1-3)Gal(b1-4)GlcNAc
# Procedure, shortened: as §1
# [8] = molecular target: GlcNAc(b1-3)Gal(b1-4)GlcNAc(b1-2)Man(a1-3)[GlcNAc(b1-3)Gal(b1-4)GlcNAc(b1-2)Man(a1-6)]Man(b1-4)GlcNAc(b1-4)GlcNAc
# Procedure, shortened: as §1
# [9] = molecular target: GlcNAc(b1-3)Gal(b1-4)GlcNAc(b1-2)Man(a1-3)[GlcNAc(b1-3)Gal(b1-4)GlcNAc(b1-2)Man(a1-6)]Man(b1-4)GlcNAc(b1-4)[Fuc(a1-6)]GlcNAc
# Procedure, shortened: as §1
# [10] = molecular target: GlcNAc(b1-3)Gal(b1-4)GlcNAc(b1-2)[GlcNAc(b1-3)Gal(b1-4)GlcNAc(b1-6)]Man(a1-6)[GlcNAc(b1-3)Gal(b1-4)GlcNAc(b1-2)Man(a1-3)]Man(b1-4)GlcNAc(b1-4)GlcNAc
# Procedure, shortened: as §1
# [11] = molecular target: GlcNAc(b1-3)Gal(b1-4)GlcNAc(b1-3)Gal(b1-4)GlcNAc
# Procedure, shortened: as §1
# [12] = molecular target: GlcNAc(b1-3)Gal(b1-4)GlcNAc(b1-3)Gal(b1-4)GlcNAc(b1-2)Man(a1-3)[GlcNAc(b1-3)Gal(b1-4)GlcNAc(b1-3)Gal(b1-4)GlcNAc(b1-2)Man(a1-6)]Man(b1-4)GlcNAc(b1-4)GlcNAc
# Procedure, shortened: as §1
# [13] = molecular target: GlcNAc(b1-3)Gal(b1-4)GlcNAc(b1-3)Gal(b1-4)GlcNAc(b1-2)Man(a1-3)[GlcNAc(b1-3)Gal(b1-4)GlcNAc(b1-3)Gal(b1-4)GlcNAc(b1-2)Man(a1-6)]Man(b1-4)GlcNAc(b1-4)[Fuc(a1-6)]GlcNAc
# Procedure, shortened: as §1
# [14] = molecular target: GlcNAc(b1-3)Gal(b1-4)GlcNAc(b1-3)Gal(b1-4)GlcNAc(b1-2)[GlcNAc(b1-3)Gal(b1-4)GlcNAc(b1-3)Gal(b1-4)GlcNAc(b1-6)]Man(a1-6)[GlcNAc(b1-3)Gal(b1-4)GlcNAc(b1-3)Gal(b1-4)GlcNAc(b1-2)Man(a1-3)]Man(b1-4)GlcNAc(b1-4)[Fuc(a1-6)]GlcNAc
# Procedure, shortened: as §1
# [15] = molecular target: GlcNAc(b1-3)Gal(b1-4)GlcNAc(b1-3)Gal(b1-4)GlcNAc(b1-3)Gal(b1-4)GlcNAc(b1-2)Man(a1-3)[GlcNAc(b1-3)Gal(b1-4)GlcNAc(b1-3)Gal(b1-4)GlcNAc(b1-3)Gal(b1-4)GlcNAc(b1-2)Man(a1-6)]Man(b1-4)GlcNAc(b1-4)GlcNAc
# Procedure, shortened: as §1
# [16] = molecular target: GlcNAc(b1-3)Gal(b1-4)GlcNAc(b1-3)Gal(b1-4)GlcNAc(b1-3)Gal(b1-4)GlcNAc(b1-2)Man(a1-3)[GlcNAc(b1-3)Gal(b1-4)GlcNAc(b1-3)Gal(b1-4)GlcNAc(b1-3)Gal(b1-4)GlcNAc(b1-2)Man(a1-6)]Man(b1-4)GlcNAc(b1-4)[Fuc(a1-6)]GlcNAc
# Procedure, shortened: as §1
# [17] = molecular target: GlcNAc(b1-3)Gal(b1-4)GlcNAc(b1-3)Gal(b1-4)GlcNAc(b1-3)Gal(b1-4)GlcNAc(b1-2)[GlcNAc(b1-3)Gal(b1-4)GlcNAc(b1-3)Gal(b1-4)GlcNAc(b1-3)Gal(b1-4)GlcNAc(b1-6)]Man(a1-6)[GlcNAc(b1-3)Gal(b1-4)GlcNAc(b1-3)Gal(b1-4)GlcNAc(b1-3)Gal(b1-4)GlcNAc(b1-2)Man(a1-3)]Man(b1-4)GlcNAc(b1-4)[Fuc(a1-6)]GlcNAc
# Procedure, shortened: as §1
# [18] = molecular target: GlcNAc(b1-3)Gal(b1-4)GlcNAc(b1-3)Gal(b1-4)GlcNAc(b1-3)Gal(b1-4)GlcNAc(b1-3)Gal(b1-4)GlcNAc(b1-2)Man(a1-3)[GlcNAc(b1-3)Gal(b1-4)GlcNAc(b1-3)Gal(b1-4)GlcNAc(b1-3)Gal(b1-4)GlcNAc(b1-3)Gal(b1-4)GlcNAc(b1-2)Man(a1-6)]Man(b1-4)GlcNAc(b1-4)GlcNAc
# Procedure, shortened: as §1
# [19] = molecular target: GlcNAc(b1-3)Gal(b1-4)GlcNAc(b1-3)Gal(b1-4)GlcNAc(b1-3)Gal(b1-4)GlcNAc(b1-3)Gal(b1-4)GlcNAc(b1-2)Man(a1-3)[GlcNAc(b1-3)Gal(b1-4)GlcNAc(b1-3)Gal(b1-4)GlcNAc(b1-3)Gal(b1-4)GlcNAc(b1-3)Gal(b1-4)GlcNAc(b1-2)Man(a1-6)]Man(b1-4)GlcNAc(b1-4)[Fuc(a1-6)]GlcNAc
# Procedure, shortened: as §1
# [20] = molecular target: GlcNAc(b1-3)Gal(b1-4)GlcNAc(b1-3)Gal(b1-4)GlcNAc(b1-3)Gal(b1-4)GlcNAc(b1-3)Gal(b1-4)GlcNAc(b1-2)[GlcNAc(b1-3)Gal(b1-4)GlcNAc(b1-3)Gal(b1-4)GlcNAc(b1-3)Gal(b1-4)GlcNAc(b1-3)Gal(b1-4)GlcNAc(b1-6)]Man(a1-6)[GlcNAc(b1-3)Gal(b1-4)GlcNAc(b1-3)Gal(b1-4)GlcNAc(b1-3)Gal(b1-4)GlcNAc(b1-3)Gal(b1-4)GlcNAc(b1-2)Man(a1-3)]Man(b1-4)GlcNAc(b1-4)[Fuc(a1-6)]GlcNAc
# Procedure, shortened: as §1
# [21] = molecular target: GlcNAc(b1-3)Gal(b1-4)GlcNAc(b1-3)Gal(b1-4)GlcNAc(b1-3)GalNAc
# Procedure, shortened: as §1
# [22] = molecular target: GlcNAc(b1-3)Gal(b1-4)GlcNAc(b1-3)GalNAc
# Procedure, shortened: as §1
# [23] = molecular target: GlcNAc(b1-3)Gal(b1-4)GlcNAc(b1-3)[GlcNAc(b1-3)Gal(b1-4)GlcNAc(b1-3)]GalNAc
# Procedure, shortened: as §1
# [24] = molecular target: GlcNAc(b1-3)Gal(b1-4)GlcNAc(b1-6)[Gal(b1-3)]GalNAc
# Procedure, shortened: as §1
# [25] = molecular target: GlcNAc(b1-3)Gal(b1-4)GlcNAc(b1-6)[GlcNAc(b1-3)Gal(b1-3)]GalNAc
# Procedure, shortened: as §1
# [26] = molecular target: GlcNAc(b1-3)Gal(b1-4)GlcNAc(b1-6)[GlcNAc(b1-3)]Gal(b1-4)GlcNAc
# Procedure, shortened: as §1
# GlcNAc(b1-3)GalNAc = molecular target: GlcNAc(b1-3)GalNAc
# Procedure, shortened: as §1
# GlcNAc(b1-3)Man = molecular target: GlcNAc(b1-3)Man
# Procedure, shortened: as §1
# [27] = molecular target: GlcNAc(b1-3)[GlcNAc(b1-4)][GlcNAc(b1-6)]GlcNAc
# Procedure, shortened: as §1
# [28] = molecular target: GlcNAc(b1-3)[GlcNAc(b1-6)]Gal(b1-4)GlcNAc
# Procedure, shortened: as §1
# [29] = molecular target: GlcNAc(b1-3)[GlcNAc(b1-6)]GalNAc
# Procedure, shortened: as §1
# [30] = molecular target: GlcNAc(b1-4)Gal(b1-4)GlcNAc
# Procedure, shortened: as §1
# GlcNAc(b1-4)GlcNAc = molecular target: GlcNAc(b1-4)GlcNAc
# Procedure, shortened: as §1
# [31] = molecular target: GlcNAc(b1-4)GlcNAc(b1-4)GlcNAc
# Procedure, shortened: as §1
# [32] = molecular target: GlcNAc(b1-4)GlcNAc(b1-4)GlcNAc(b1-4)GlcNAc(b1-4)GlcNAc
# Procedure, shortened: as §1
binder,measurement,setting,value
PX14367A-bth-493-35-493 (Bacteroides thetaiotaomicron) (protein) VSSDQVAVAGNAERLFNGAWYNLFEYGTTYANIGYRALQCQDDMMASDVVSRPKYGFNSSYQFNDVAIPSDGRTSFAWYLIYKTIDNCNTAISIKGDSEELRQAQGQALALRAFCYLHLVQHYQFTYLKDKDAPCVPIYTEPTTSGTKPKGKSTVAQVYQQIFDDLNLAQDYLTNYVRKGDGQKFKPNTDVVNGLMARAYLLTGQWGEAAKAAEAARKGYSLMTTTAEYEGFNNISNKEWIWGSPQTLSQSDASYNFYYLDATYVGAYSSFMADPHLMDTFVKGDIRLPLFQWMREGYLGYKKFHMRSDDTADLVLMRSAEMYLIEAEAKVRDGVALDQAVAPLNTLRTARGVGNYDVTGKTKEQVIDEILMERRRELWGEGFGITDVLRNQKAVERMALSEDMQKTEVDCWQEGGSFAKRNPLGHWFLNFPDGKAFSANSSYYLYAIPEKEINANPNL,glycan array binding signal (z-score),[1],-0.379
same,glycan array binding signal (z-score),[2],-0.026
same,glycan array binding signal (z-score),[3],0.663
same,glycan array binding signal (z-score),[4],-0.351
same,glycan array binding signal (z-score),[5],-0.454
same,glycan array binding signal (z-score),GlcNAc(b1-3)Fuc,-0.359
same,glycan array binding signal (z-score),GlcNAc(b1-3)Gal,-0.294
same,glycan array binding signal (z-score),[6],-0.008
same,glycan array binding signal (z-score),GlcNAc(b1-3)Gal(b1-4)Glc,0.275
same,glycan array binding signal (z-score),[7],0.048
same,glycan array binding signal (z-score),[8],-0.408
same,glycan array binding signal (z-score),[9],-0.198
same,glycan array binding signal (z-score),[10],0.049
same,glycan array binding signal (z-score),[11],-0.619
same,glycan array binding signal (z-score),[12],1.06
same,glycan array binding signal (z-score),[13],0.088
same,glycan array binding signal (z-score),[14],-0.347
same,glycan array binding signal (z-score),[15],-0.507
same,glycan array binding signal (z-score),[16],-0.073
same,glycan array binding signal (z-score),[17],0.046
same,glycan array binding signal (z-score),[18],-0.11
same,glycan array binding signal (z-score),[19],-0.036
same,glycan array binding signal (z-score),[20],-0.122
same,glycan array binding signal (z-score),[21],-0.704
same,glycan array binding signal (z-score),[22],-0.007
same,glycan array binding signal (z-score),[23],0.349
same,glycan array binding signal (z-score),[24],0.536
same,glycan array binding signal (z-score),[25],0.046
same,glycan array binding signal (z-score),[26],-0.7
same,glycan array binding signal (z-score),GlcNAc(b1-3)GalNAc,-0.382
same,glycan array binding signal (z-score),GlcNAc(b1-3)Man,-0.013
same,glycan array binding signal (z-score),[27],-0.618
same,glycan array binding signal (z-score),[28],-0.591
same,glycan array binding signal (z-score),[29],-0.437
same,glycan array binding signal (z-score),[30],-0.18
same,glycan array binding signal (z-score),GlcNAc(b1-4)GlcNAc,-0.313
same,glycan array binding signal (z-score),[31],-0.384
same,glycan array binding signal (z-score),[32],-0.597
